Results: PMC4336329 (PLoS ONE, 2015)
In all, about 310,000 compounds went through this assay and about 14,000 (4.5%) showed an effect of 50% or more. The effect is printed as a negative number. The list shows a part of the results.

target: human ether-à-go-go-related gene (hERG) potassium channel (human, UniProt Q12809); experiment: primary screen, population patch clamp on CHO cells stably expressing hERG
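Also: peak tail current of the secondary pulse compared with the same well before compound.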

human ether-à-go-go-related gene (hERG) potassium channel, sequence (Q12809 whole entry, looked up): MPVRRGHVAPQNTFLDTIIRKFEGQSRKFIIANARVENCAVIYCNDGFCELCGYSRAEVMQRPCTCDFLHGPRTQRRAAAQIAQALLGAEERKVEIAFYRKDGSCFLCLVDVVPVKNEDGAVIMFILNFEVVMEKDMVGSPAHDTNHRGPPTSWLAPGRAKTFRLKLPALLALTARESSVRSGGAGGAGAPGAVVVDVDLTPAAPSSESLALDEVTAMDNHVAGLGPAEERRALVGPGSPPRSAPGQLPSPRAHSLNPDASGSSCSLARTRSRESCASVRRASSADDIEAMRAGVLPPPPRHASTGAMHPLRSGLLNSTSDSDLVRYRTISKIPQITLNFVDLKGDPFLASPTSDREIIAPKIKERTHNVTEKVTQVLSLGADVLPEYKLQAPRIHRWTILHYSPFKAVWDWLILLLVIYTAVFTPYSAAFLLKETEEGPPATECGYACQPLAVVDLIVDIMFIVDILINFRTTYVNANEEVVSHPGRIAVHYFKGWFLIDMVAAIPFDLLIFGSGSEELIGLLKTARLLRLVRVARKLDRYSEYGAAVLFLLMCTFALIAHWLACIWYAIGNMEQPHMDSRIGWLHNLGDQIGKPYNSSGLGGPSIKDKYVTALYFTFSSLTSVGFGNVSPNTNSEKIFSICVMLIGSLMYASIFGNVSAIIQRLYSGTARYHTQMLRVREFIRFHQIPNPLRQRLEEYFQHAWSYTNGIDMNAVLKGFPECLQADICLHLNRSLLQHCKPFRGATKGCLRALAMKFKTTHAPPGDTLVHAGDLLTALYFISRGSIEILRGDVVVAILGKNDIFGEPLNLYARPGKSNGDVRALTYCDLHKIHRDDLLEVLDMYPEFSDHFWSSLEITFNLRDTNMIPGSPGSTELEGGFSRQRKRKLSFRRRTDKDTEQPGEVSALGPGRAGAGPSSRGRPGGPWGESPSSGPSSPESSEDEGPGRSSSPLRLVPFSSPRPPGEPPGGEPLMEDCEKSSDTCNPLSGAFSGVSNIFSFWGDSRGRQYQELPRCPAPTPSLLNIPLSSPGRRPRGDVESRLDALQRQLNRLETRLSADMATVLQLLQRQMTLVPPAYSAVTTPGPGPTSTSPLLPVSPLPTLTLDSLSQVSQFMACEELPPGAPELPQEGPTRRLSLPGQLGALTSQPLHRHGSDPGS

Row | SMILES | hERG current change (%, negative = inhibition) at 10uM
1 | O=C(N/C(=C\c1ccco1)C(=O)N1CCCC1CO)c1ccccc1 (stereo not drawn) | 11.5%
2 | CSCCC(NC(=O)c1ccc([N+](=O)[O-])cc1Cl)C(=O)OCC(=O)N1CCN(C(C)=O)CC1 (stereo not drawn) | 3.12%
3 | O=C(NCCCO)c1ccc(CSc2nc3ccccc3c(=O)[nH]2)cc1 | -18.3%
4 | CN(C)c1cccc(C(=O)NNC(=O)CSc2ccccc2)c1 | 19.6%
5 | O=C(Nc1cccc(F)c1)c1cc(S(=O)(=O)NCCC2=CCCCC2)ccc1F | 17.4%
6 | COc1ccc(/C=N/NC(=O)c2cccnc2)cc1CN1CCc2cc(OC)c(OC)cc2C1C (stereo not drawn) | -40.9%
7 | COc1ccccc1S(=O)(=O)Cc1ccc(C(=O)NCCN(C)C)o1 | -3.17%
8 | O=C(Cc1ccccc1)c1ccc2c(c1)OCCO2 | -1.42%
9 | CN1C2CCC1CC(OC(=O)c1ccc(Cl)cc1)(C(=O)O)C2.Cl (stereo not drawn) | 1.82%
10 | COc1ccccc1N1C(=O)c2ccc(C(=O)Nc3ccccc3O)cc2C1=O | 12.5%
11 | CCN(CC(=O)N1CCc2ccccc2C1)S(=O)(=O)c1ccc2ccccc2c1 | -32.2%
12 | c1ccc2[nH]c(NCCCN3CCOCC3)nc2c1 | -6.61%
13 | Nc1ccc(C(=O)O)cc1[N+](=O)[O-] | 11.7%
14 | COc1ccc(/C=N/NC(=O)c2cccc(C(=O)N/N=C/c3ccc(OC)cc3)n2)cc1 | 19%
15 | O=C(Nc1ccc(F)c(F)c1)c1ccc(-n2cncn2)c([N+](=O)[O-])c1 | -35.7%
16 | CCOC(=O)c1c(S(=O)(=O)NCC(=O)Nc2ccc(F)cc2F)c(C)n(C)c1C | 2.01%
17 | Cc1cccc(OCCCC(=O)Nc2ccccc2C(F)(F)F)c1 | 1.44%
18 | Cc1ccc(NC(=O)C[n+]2ccn(C3=C([O-])c4ccccc4C3=O)c2)cc1 | 21.5%
19 | COc1ccc(S(=O)(=O)NNC(=O)c2ccccc2-n2cccc2)cc1 | 9.16%
20 | CNC(C(=O)c1ccccc1)C(OC)c1ccc(C)cc1.[O-][Cl+3]([O-])([O-])O (stereo not drawn) | 8.84%
21 | O=C(O)c1ccc(/C=N/Nc2ccc(Cl)nn2)cc1 | 20.9%
22 | O=C(Nc1ccc(C(=O)NCc2ccccc2)cc1)C1=CSCCO1 | 21.8%
23 | CCOc1cc(NC(=S)NCc2ccccc2)c(OCC)cc1NC(=O)C(C)C | 13.6%
24 | COc1cccc(OCCNC(=O)CSc2ccc(C(F)(F)F)cc2[N+](=O)[O-])c1 | 10.5%
25 | COC(=O)c1cc(C(=O)OCC(=O)NCc2cccs2)cc([N+](=O)[O-])c1 | -19%
26 | FC(F)Oc1ccc(NC(=S)Nn2cnnc2)cc1 | -9.86%
27 | C=CCN(CC=C)C(=O)c1cc2ccccc2c(=O)o1 | -4.56%

Row | SMILES | hERG current change (%, negative = inhibition) at 10uM
28 | CCN1CCC2(CC1)C(C#N)=C(N)Oc1c2sc2nc(C)cc(C)c12 | -45.5%
29 | COc1ccc2[nH]c(C(=O)Nc3ncc(C)cc3Br)cc2c1 | 2.5%
30 | O=C(NN=C1CCCC1)c1ccc(Br)cc1 | 6.05%
31 | Cn1nc(C(F)(F)F)c(-c2cccc(C(F)(F)F)c2)c1NC(=O)Nc1ccc(F)cc1 | 7.44%
32 | COc1ccc(CN2CCCCCC2)cc1 | -10.9%
33 | CC(=O)Nc1ccc(/C=N/OCC(=O)Nc2ccc(C)cc2)cc1 | -7.94%
34 | Cc1nn2c(-c3ccc(F)cc3)ccnc2c1Br | 9.61%
35 | CCCC(=O)N(CCN1CCOCC1)c1nc2c(OCC)cccc2s1.Cl | 9.08%
36 | Cc1ccc(-n2nc(C)c3c2OC(N)=C(C#N)C3c2ccco2)cc1 (stereo not drawn) | 9.96%
37 | CSc1nnc(-c2cccc(NC(=S)NN)c2)o1 | 14.7%
38 | COc1cccc(/C=C(/C(=O)OCC(=O)NC2CCCCCCC2)c2ccccc2)c1 | -4.41%
39 | CC(=O)Nc1ccc(C(=O)NNC(=O)c2cc([N+](=O)[O-])cc([N+](=O)[O-])c2)cc1 | 21.3%
40 | COc1ccc(C2C(C#N)=C(/N=C/N3CCOCC3)OC3=C2C(=O)CC(C)(C)C3)cc1OC (stereo not drawn) | -13.5%
41 | O=C(CCCC(=O)N(CC(=O)NC1CCCCC1)c1cccc(F)c1)Nc1ccccn1 | -55.3%
42 | CCOC(=O)C1CCN(S(=O)(=O)c2ccc(Cl)s2)CC1 | -13.3%
43 | Cc1ccc(NC(=O)Cc2ccc(Cl)c(Cl)c2)cc1S(=O)(=O)N(C)C | 7.88%
44 | Cc1cc2c3c(c1)C1(SCC(=O)N1c1ccc(F)cc1)C(=O)N3C(C)(C)CC2C (stereo not drawn) | -14.7%
45 | COc1ccccc1CC(NC(C)=O)C(=O)NC1CCN(S(=O)(=O)c2ccc(NC(C)=O)cc2)CC1 (stereo not drawn) | -4.33%
46 | COc1ccccc1CC(=O)Nc1cc(S(=O)(=O)N2CCOCC2)ccc1N1CCOCC1 | -2.33%
47 | CC(C)(C)c1cc(C(=O)C[n+]2ccc(C(=O)NCCCO)cc2)cc(C(C)(C)C)c1O.[Br-] | 3.46%
48 | Cc1ccc(OCCSCc2nnc(NC(=O)Nc3cccc(Cl)c3)s2)cc1 | -2.22%
49 | CCCOc1ccc(N2C(=O)C3C4C=CC(CC4)C3C2=O)cc1 (stereo not drawn) | 10.1%
50 | Cc1ccc(C)c(N2CCN(C(=O)c3ccc(NS(=O)(=O)c4c(C)noc4C)cc3)CC2)c1 | 8.88%
51 | Cc1ccc2[nH]c(=O)c(CN(CC3CCCO3)C(=O)c3ccncc3)cc2c1 (stereo not drawn) | 8.32%
52 | O=C(N/N=C/c1ccc(Cl)cc1)Nc1ccccc1 | -14.2%
53 | C[C@H](NC(=O)[C@@H]1Cc2ccccc2CN1C(=O)OC(C)(C)C)C(=O)NC1CCCCC1 | 15.8%
54 | Cc1cccnc1N(C(=O)Nc1ccccc1)C1=NCC(C)(C)S1 | -4.5%
